{
  "source": "the supplement of paper PMC11417369",
  "note": "± gives the standard deviation of the averaged measurements. Some of the results follow.",
  "data": [
    {"test_system": "PfAP2-I AP2 domain 3 (GST-tagged)", "experiment": "gcPBM binding intensity (ln(normalized median fluorescence intensity)); higher = stronger DNA binding", "how_it_was_run": "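DNA-binding domains from P. falciparum, fused to GST and produced in E. coli, were put on an Agilent 4 × 180k double-stranded probe array for 1 h in 1× PBS holding 1% milk, 0.2 mg/ml BSA, 0.5% salmon testes DNA and 0.03% Triton X-100. Probes were primer-extended, 36 bp long and drawn from intergenic genomic regions, with negative controls included. After Alexa488 anti-GST antibody detection and a 488 nm scan, binding intensity was set as the highest Masliner-normalised natural-log median intensity across replicate spots of either probe orientation.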", "values": [
      {"sequence": "TAATTTTATTTTATATGTACGCAATACAAATATATA [XGTACX_site8461]", "gcPBM binding intensity (ln)": "7.86 ± 0.21"},
      {"sequence": "AAATGACATTTCAAAAGTACATATTTAATTAATTAA [XGTACX_site2919]", "gcPBM binding intensity (ln)": "7.67 ± 0.45"},
      {"sequence": "TTTATATATATAATATGTACACATAATAATAATACA [XGTACX_site4862]", "gcPBM binding intensity (ln)": "7.89 ± 0.23"},
      {"sequence": "TTTATTTAAAAAGTTTGTACATATATATTATTTTGA [XGTACX_site6040]", "gcPBM binding intensity (ln)": "7.55 ± 0.48"},
      {"sequence": "CATATATAAATATATACACACATACATACATACATA [CACACA_site5988]", "gcPBM binding intensity (ln)": "7.93 ± 0.66"},
      {"sequence": "ATATTATAGTTATGAACATGCAAACATTACGAAATA [TGCATGCA_site54]", "gcPBM binding intensity (ln)": "7.71 ± 0.72"},
      {"sequence": "AAAAAATATTAGACTTATAAAGCATAAAGGATATTA [GTGCAC_negctrl_site588]", "gcPBM binding intensity (ln)": "7.57 ± 0.67"},
      {"sequence": "AATTTATTATTTTATTGTACGTATTTTTTTTTTTAT [XGTACX_site2298]", "gcPBM binding intensity (ln)": "8.1 ± 0.2"},
      {"sequence": "ATATTTGCATGTGGTAGTACATAACATTCTTTTACA [XGTACX_site8194]", "gcPBM binding intensity (ln)": "8.29 ± 0.57"},
      {"sequence": "ATATCTTATAATACGGTGCACTTGACATGAACAACT [GTGCAC_site9987]", "gcPBM binding intensity (ln)": "10.7 ± 0.3"},
      {"sequence": "CTTCAATTAAAATTCACACATATAAATTAAAATATT [CACACA_site6129]", "gcPBM binding intensity (ln)": "7.54 ± 0.39"},
      {"sequence": "ATATATAATTAATTTTGTACACATAAAAAAAAAAAT [XGTACX_site6647]", "gcPBM binding intensity (ln)": "7.96 ± 0.38"},
      {"sequence": "AGAGAGAAAGCTATAACATGCAACAATTTTTTGAAA [TGCATGCA_site514]", "gcPBM binding intensity (ln)": "7.62 ± 0.61"},
      {"sequence": "AAATAGAGAAATACAAGTACATATCAAACCAATATA [XGTACX_site1192]", "gcPBM binding intensity (ln)": "7.64 ± 0.53"},
      {"sequence": "CTTTTGTCATTCTTTTGTACACAGTTTGAAATATGT [XGTACX_site1457]", "gcPBM binding intensity (ln)": "8.3 ± 0.33"},
      {"sequence": "ATAATAAATAAATAATGTACATATGAAAGAATAAAT [XGTACX_site8355]", "gcPBM binding intensity (ln)": "8.18 ± 0.7"},
      {"sequence": "ATAAAAAAGAAACAAACACACATACATACAAACAAA [CACACA_site4256]", "gcPBM binding intensity (ln)": "7.99 ± 0.38"},
      {"sequence": "TACATTTATATATATACACACACACTAATAAAAAAA [CACACA_site8845]", "gcPBM binding intensity (ln)": "8 ± 0.54"},
      {"sequence": "ATATGTATATATAAGGTGCAGAAAGGTGGGCAAAAG", "gcPBM binding intensity (ln)": "10.8 ± 0.39"},
      {"sequence": "TAAATACAGATATATACACACATATATATATTTTAT [CACACA_site5970]", "gcPBM binding intensity (ln)": "7.5 ± 0.35"},
      {"sequence": "TCATATATTTTAATATGTACACATTTTTTTGGTATA [XGTACX_site8695]", "gcPBM binding intensity (ln)": "7.79 ± 0.35"},
      {"sequence": "TACAGACTAAAATACACACACACACGCACATATATA [CACACA_site7875]", "gcPBM binding intensity (ln)": "8.07 ± 0.49"},
      {"sequence": "TTTTTCTTTATTAGCACACATAATATTATATATGTG [CACACA_site2629]", "gcPBM binding intensity (ln)": "8.84 ± 0.44"},
      {"sequence": "ATATAAACAATATTTTGTACATAATTTTATGAGCAT [XGTACX_site6933]", "gcPBM binding intensity (ln)": "7.8 ± 0.29"},
      {"sequence": "AAAGAAAGAAGAAATTGTACATAATAAATAAGTAAA [XGTACX_site3311]", "gcPBM binding intensity (ln)": "7.61 ± 0.5"},
      {"sequence": "GCATATGTTTATTGCACACACCAAAAAGAAAACATA [CACACA_site4384]", "gcPBM binding intensity (ln)": "10.4 ± 0.61"},
      {"sequence": "ATTATTTGTTTAATGAGTACGAAGACAAATTTTACC [XGTACX_site5223]", "gcPBM binding intensity (ln)": "8.12 ± 0.49"},
      {"sequence": "TATATACACAGACACACACACACATACACGCACATA [CACACA_site6909]", "gcPBM binding intensity (ln)": "8.33 ± 0.23"},
      {"sequence": "GTACTATACAAAGATGATAATCAATATATATATATA [XGTACX_negctrl_site264]", "gcPBM binding intensity (ln)": "9.38 ± 0.62"},
      {"sequence": "AAAGGAAAAAAAAGCACACACAATATTACTTGAAAT [CACACA_site2588]", "gcPBM binding intensity (ln)": "7.97 ± 0.63"},
      {"sequence": "TTCACCAGTTGGTAAACATGCAATTTTCCATACAAG [TGCATGCA_site267]", "gcPBM binding intensity (ln)": "7.75 ± 0.71"},
      {"sequence": "AAAAAAAACGGACACACACACATACCCATACATACA [CACACA_site5574]", "gcPBM binding intensity (ln)": "8.21 ± 0.11"},
      {"sequence": "ATATAAATACATAAATGTACTTACCATTTAAATATG [XGTACX_site5254]", "gcPBM binding intensity (ln)": "7.73 ± 0.44"},
      {"sequence": "ATTCTTTTAAAATAGGTGCTAAAAATAATATGTTAC", "gcPBM binding intensity (ln)": "9.595 ± 0.035"},
      {"sequence": "TACAATAAGGATAAGTGTACATATGTGCATACATAT [XGTACX_site7188]", "gcPBM binding intensity (ln)": "9.03 ± 0.085"},
      {"sequence": "AAAAATTATAGAAAAGTGCAATACATGTTACACCAT", "gcPBM binding intensity (ln)": "10.28 ± 0.078"},
      {"sequence": "CATATAGCATAATCATGTACACATACAACAAATAGG [XGTACX_site1589]", "gcPBM binding intensity (ln)": "8.14 ± 0.4"},
      {"sequence": "ATTCTCCAAGTTTGATGTACACATATGACGACGGCG [XGTACX_site4912]", "gcPBM binding intensity (ln)": "7.92 ± 0.38"},
      {"sequence": "TATAATAATTATACATGTACACATTATTTGGATAAA [XGTACX_site5552]", "gcPBM binding intensity (ln)": "7.86 ± 0.11"},
      {"sequence": "TTTTTATATTTAATGTGTCCTCACTTAAAAGGATGA [XGTACX_site2744]", "gcPBM binding intensity (ln)": "7.7 ± 0.4"},
      {"sequence": "AATATATTTTTTGGTTGTACAGAGATCTTTGTAGAA [XGTACX_site1707]", "gcPBM binding intensity (ln)": "7.76 ± 0.18"},
      {"sequence": "ATATTTATTTATTTATGTACGCACACAGTTGATATT [XGTACX_site5808]", "gcPBM binding intensity (ln)": "8.53 ± 0.25"},
      {"sequence": "CACTATATAAGAACCTGTACTCAATTTTGCAATATA [XGTACX_site7238]", "gcPBM binding intensity (ln)": "7.92 ± 0.54"},
      {"sequence": "AAATTATATTCAAGTGCATGTAACTTATTATTATAT [TGCATGCA_site526]", "gcPBM binding intensity (ln)": "8.27 ± 0.45"},
      {"sequence": "TAATAATAAAAATAAACACACATATATATGTATATA [CACACA_site2853]", "gcPBM binding intensity (ln)": "7.44 ± 0.4"},
      {"sequence": "TATATTTTCCTGCAAACACACATATAAATGTGTAGA [CACACA_site533]", "gcPBM binding intensity (ln)": "8.22 ± 0.84"},
      {"sequence": "TATAATCAATATGTAACACACAAAAGTTATATACTT [CACACA_site7368]", "gcPBM binding intensity (ln)": "7.58 ± 0.5"},
      {"sequence": "AACATGCTCAACTTTTTTTTTTTTTTTTTTTTTTTT [CACACA_negctrl_site1617]", "gcPBM binding intensity (ln)": "9.705 ± 0.064"},
      {"sequence": "GTAAAAATAAAAACTGGTACACAAGTTGTTATAAAA [XGTACX_site502]", "gcPBM binding intensity (ln)": "7.71 ± 0.65"},
      {"sequence": "AAAATAAAATAAAAGTGTACGTTTTAAGAACATTGA [XGTACX_site2382]", "gcPBM binding intensity (ln)": "7.76 ± 0.48"},
      {"sequence": "CTTTTTTGTTAAAGTGTGCGCAATAGTTATAGACTT [GTGCAC_site9670]", "gcPBM binding intensity (ln)": "9.48 ± 0.14"},
      {"sequence": "AATCTTAAAAATATATGTACTAAAAAAAAAAAAAAT [XGTACX_site6195]", "gcPBM binding intensity (ln)": "7.77 ± 0.44"},
      {"sequence": "ATGAATAAATTAAAAATGCACACTTTGATGGGTACA [CACACA_site2157]", "gcPBM binding intensity (ln)": "8.84 ± 0.099"},
      {"sequence": "TATATATATATATATACACACTATATAATTCAAACA [CACACA_site4712]", "gcPBM binding intensity (ln)": "9.46 ± 0.45"},
      {"sequence": "TTACGATTATACAAAAGTACATGTATTACACAATAT [XGTACX_site5138]", "gcPBM binding intensity (ln)": "8.09 ± 0.36"},
      {"sequence": "TATACCAGTTTTAAAAGTACTTGTGCATAAAAAATA [XGTACX_site4794]", "gcPBM binding intensity (ln)": "10.4 ± 0.17"},
      {"sequence": "AAACTTGTAAGAAACACACACACACCCATATATATA [CACACA_site797]", "gcPBM binding intensity (ln)": "8.34 ± 0.6"}
    ]}
  ]
}
